In all, about 33,000 sequences were measured (“E-score (-0.5 to 0.5)”: median about -0.041, highest 2% from about 0.37 on). The list shows a part of the results.
target: T1, Ecm22 (UniProt Q05958); test: PBM E-score (8-mer binding enrichment) (E-score (-0.5 to 0.5)); higher = stronger / more preferred TF binding; most listed sequences are background and not binding sites; details: protein concentration: 200 nM; construct: GST-full length
T1 sequence: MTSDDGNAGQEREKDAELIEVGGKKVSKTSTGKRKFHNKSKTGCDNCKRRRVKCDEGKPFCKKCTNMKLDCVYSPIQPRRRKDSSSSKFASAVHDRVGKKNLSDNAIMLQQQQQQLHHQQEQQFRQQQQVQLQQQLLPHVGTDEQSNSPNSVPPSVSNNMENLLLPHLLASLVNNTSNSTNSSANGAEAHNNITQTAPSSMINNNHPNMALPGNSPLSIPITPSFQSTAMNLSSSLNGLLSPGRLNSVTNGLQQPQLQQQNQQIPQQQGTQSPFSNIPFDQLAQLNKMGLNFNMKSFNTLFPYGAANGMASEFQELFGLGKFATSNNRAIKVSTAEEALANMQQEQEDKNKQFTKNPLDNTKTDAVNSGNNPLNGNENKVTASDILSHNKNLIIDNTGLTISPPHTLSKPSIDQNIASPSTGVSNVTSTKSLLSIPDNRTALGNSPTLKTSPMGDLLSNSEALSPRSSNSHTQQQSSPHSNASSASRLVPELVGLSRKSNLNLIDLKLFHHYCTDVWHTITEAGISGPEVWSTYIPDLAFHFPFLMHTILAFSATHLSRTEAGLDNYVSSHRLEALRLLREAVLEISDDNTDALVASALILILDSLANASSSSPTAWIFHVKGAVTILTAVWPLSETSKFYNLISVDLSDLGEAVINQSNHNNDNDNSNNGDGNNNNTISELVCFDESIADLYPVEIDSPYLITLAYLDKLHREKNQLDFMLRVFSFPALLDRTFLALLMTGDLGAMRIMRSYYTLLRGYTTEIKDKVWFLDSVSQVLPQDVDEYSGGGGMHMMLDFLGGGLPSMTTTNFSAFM
Method: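 Universal 'all 10-mer' protein binding microarrays (Agilent AMADID 015681) probed with GST-tagged S. cerevisiae TFs (full-length or DBD) made by in vitro transcription/translation (PURExpress), about 100-200 nM. Bound TF was detected with fluorescent anti-GST. Each ungapped 8-mer (which stands for itself and its reverse complement) is scored by the PBM enrichment score (E-score), a modified Wilcoxon-Mann-Whitney statistic from -0.5 to +0.5, computed with the Universal PBM Analysis Suite. Scale: above 0.35 generally sequence-specific binding.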

| Sequence | PBM E-score |
| --- | --- |
| TAACTTCA | 0.0176 |
| CTGTTGTA | -0.103 |
| AAAGAACA | -0.129 |
| CAGATTAG | -0.218 |
| CGGGAAAA | 0.137 |
| CCTATAAA | -0.0954 |
| GCCGGCGA | -0.117 |
| CCAGTGCC | -0.0678 |
| ATTTTGCA | -0.0799 |
| GACCGGCC | -0.0673 |
| AGCCGTAT | 0.315 |
| AATCAAAA | -0.0669 |
| CCGCGCAC | -0.0362 |
| ACGTAGTC | -0.158 |
| CCCGCCGG | -0.202 |
| CAATTAAC | 0.0679 |
| GAGGCAGA | -0.0134 |
| ACGCAGCC | 0.00221 |
| AAAAGCCG | 0.0262 |
| AAATTAGT | -0.0384 |
| ATAGAACA | -0.174 |
| CCTGTTAA | -0.317 |
| AGAGTGTA | -0.138 |
| AAAGGTCT | -0.0115 |
| AGCGGCAG | -0.134 |

| Sequence | PBM E-score |
| --- | --- |
| CCAATCAG | -0.212 |
| CGTCACTA | -0.0261 |
| ACTAAGGC | -0.282 |
| ACCTTTAG | -0.154 |
| CCGTGTTA | -0.0133 |
| ATGTACTA | 0.0275 |
| GTAGCGGA | 0.224 |
| CTGGTCGC | -0.0227 |
| CGTCGGGA | 0.186 |
| ATTGGCAA | -0.038 |
| ATTTCCCG | 0.133 |
| ACGCGGAT | 0.215 |
| TAGAGGAA | -0.124 |
| AAAGCGCT | 0.0332 |
| ATCACGCA | -0.116 |
| GCTTGACA | -0.217 |
| AACTGTGT | -0.0758 |
| AGCAAGCA | -0.15 |
| GGTTACCA | 0.0711 |
| CGAGCAAC | 0.168 |
| TCCATGAA | -0.0563 |
| GACGCTGA | -0.0977 |
| GCCCCCGC | -0.055 |
| ACGGCCAT | 0.0573 |
| GTCGATTA | 0.117 |

| Sequence | PBM E-score |
| --- | --- |
| TCACGTAA | 0.00322 |
| CGGCCAAA | -0.0669 |
| ATTGTTAA | 0.00013 |
| CACCGCTA | -0.0955 |
| CTGTTAAG | -0.229 |
| CTATCCCA | -0.0728 |
| ACCTATGG | -0.153 |
| GAGAAACC | -0.034 |
| CCTCCTTA | 0.032 |
| AGTAATTA | -0.26 |
| AGACGAGG | 0.202 |
| ACGTGTGA | -0.172 |
| AACTCTTC | 0.0679 |
| TAAACGTA | 0.38 |
| ATCGCGTA | 0.191 |
| ATAACGCC | -0.051 |
| ACTGTTCG | 0.17 |
| AACCGGTG | 0.0496 |
| TAGTTTGA | 0.187 |
| CTCGTACA | 0.489 |
| GCTGGGCC | -0.213 |
| CGGGAATC | -0.041 |
| TATTCACA | -0.0158 |
| CACTCGCG | 0.107 |
| ATGTGGAA | 0.0668 |

| Sequence | PBM E-score |
| --- | --- |
| GGAATAAC | 0.0574 |
| CTGGTTAA | -0.0304 |
| CCTCTTAG | -0.0405 |
| ACTTCAGA | -0.0484 |
| TAGCGCCA | -0.154 |
| CGGTCAAC | 0.169 |
| GACAACCA | 0.0407 |
| CAACTGAG | 0.0787 |
| TAGGGATA | -0.165 |
| GAAGCCGA | -0.0879 |
| AGACGCCG | 0.0356 |
| CGGCCCAC | -0.235 |
| GGCATCGA | -0.0797 |
| AATACACA | 0.114 |
| CCCTCCGC | -0.176 |
| AGTAGTTC | -0.0387 |
| AGGGTTGC | -0.128 |
| CAAGCGCC | -0.148 |
| CACAGGAC | -0.157 |
| AAATCGAT | -0.0591 |
| ACTTTAGG | -0.0481 |
| ACCTAGAG | -0.00033 |
| GTCGGGCA | -0.207 |
| GGCGCTAA | -0.222 |
| CCTCTCAG | -0.4 |

| Sequence | PBM E-score |
| --- | --- |
| GACTCCGC | -0.185 |
| CTTTGCAA | -0.0465 |
| ACCCGTTG | -0.166 |
| ACCGGAAC | 0.327 |
| AGACGTTG | 0.0351 |
| GAAAAGTC | 0.0197 |
| AAGAGAGG | -0.104 |
| AAATGTTG | -0.0471 |
| TACATGGA | -0.119 |
| AGAATGCT | -0.192 |
| CCAGCCAC | -0.0994 |
| CCCCGTAA | 0.211 |
| GAGCCTAC | -0.268 |
| ATGAAACG | 0.254 |
| ATTATTGA | -0.0819 |
| TGCGAAAA | 0.116 |
| CCTCACGA | -0.173 |
| AGCAAAGC | -0.151 |
| TAACATTA | 0.00654 |
| GTCCGGGA | -0.00898 |
| ATAATTCC | -0.0852 |
| ACCTACCC | -0.01 |
| CCAATATC | -0.158 |
| ATCTCACA | -0.136 |
| CGTGCGAC | 0.246 |

| Sequence | PBM E-score |
| --- | --- |
| TAGGACCA | -0.185 |
| CATCCAAA | -0.0125 |
| CACTTCGG | 0.0311 |
| GGTTCTCA | -0.021 |
| ATTATATG | -0.00425 |
| AGTGGCAG | -0.355 |
| CCCCGTAG | 0.0215 |
| CTCAATGA | -0.256 |
| ACCCGGTC | -0.0818 |
| ACTTATTC | -0.0444 |
| AAGCTTCG | 0.144 |
| TCGTGCAA | 0.124 |
| CGCATGAC | -0.036 |
| AAGTTGAT | 0.0519 |
| GAGGGTGC | -0.079 |
| CCGGCTTC | -0.0485 |
| ACTGATGC | 0.00393 |
| AGTGTCTG | -0.0801 |
| CCTCTCTC | -0.103 |
| CATAATCA | 0.00695 |
| AGACACCC | -0.153 |
| AATCAAGC | -0.101 |
| CAACTTAC | -0.12 |
| CTGGCCCA | -0.307 |
| AGGTGTCG | 0.0918 |

| Sequence | PBM E-score |
| --- | --- |
| CATCAGGA | 0.139 |
| AGCCGCTA | -0.0378 |
| ATATGATA | 0.154 |
| GGGAGGTA | 0.149 |
| TCAGAGCA | -0.121 |
| AAATTCCA | -0.108 |
| GCACGGCA | -0.0485 |
| ACAACAAC | 0.155 |
| ACTCAAAT | -0.0443 |
| GACTTAAC | -0.166 |
| ACGCTGTG | -0.00502 |
| AATTAATA | 0.124 |
| ATCACGTG | 0.0167 |
| ATAATATA | 0.178 |
| GAGTGCGC | -0.0471 |
| CGCTCCAG | 0.12 |
| ATTCCAAC | -0.0284 |
| GCCCGGCC | -0.229 |
| GGCGGATA | -0.038 |
| AAACATTC | 0.0717 |
| AGCCGGAA | -0.0725 |
| CGTGCGTA | 0.233 |

Source: the supplement of paper PMC3334620
